Measurements taken from the supplement of paper PMC12217912.
Some of the results follow. The full chains were built here from the parent and the listed change. Inactive controls read about 0.05.

B1: TEV protease; numbered along this chain (parent)
chain: MGESLFKGPRDYNPISSSICHLTNESDGHTTSLYGIGFGPFIITNKHLFRRNNGTLVVQSLHGVFKVKDTTTLQQHLVDGRDMIIIRMPKDFPPFPQKLKFREPQREERICLVTTNFQTKSMSSMVSDTSCTFPSGDGIFWKHWIQTKDGQCGSPLVSTRDGFIVGIHSASNFTNTNNYFTSVPKNFMELLTNQEAQQWVSGWRLNADSVLWGGHKVFMVKPEEPFQPVKEATQL

Variants of: B1
Experiment: raw area under fraction-flipped curve 0-4 h after induction (AUC4h, not background-subtracted), DNA-recorder readout of cleavage of the substrate (dimensionless); higher = more cleavage of the substrate by the protease variant
Conditions: temperature: 34 °C; time window: 0-4 h after rhamnose induction
Description: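 In vivo DNA recorder in E. coli TOP10(DE3) ΔrhaA at 34 °C. Each TEVp single-site mutant (parent TEVp 0) is paired with a single-site variant of the 7-mer TEVs (canonical ENLYFQ|S). The substrate sits between flexible linkers in a Bxb1-sfGFP-TEVs-SsrA fusion, so cleavage stabilises Bxb1 and speeds flipping of a recombination array, read by NGS. The value is the raw area under the fraction-flipped curve over 0-4 h after rhamnose induction (AUC4h), with ≥20 reads per time point. It is not background-subtracted; inactive controls average about 0.047.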
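Further: Bxb1 expression induced with 0.2% (w/v) L-rhamnose at OD600 near 0.5, cultures sampled hourly, flipped fraction per protease–substrate barcode pair counted by paired-end Illumina sequencing.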

Variant	area with substrate ENLAFQS	area with substrate ENLDFQS	area with substrate ENLEFQS	area with substrate ENLFFQS	area with substrate ENLGFQS	area with substrate ENLHFQS	area with substrate ENLIFQS	area with substrate ENLKFQS	area with substrate ENLLFQS	area with substrate ENLMFQS	area with substrate ENLNFQS	area with substrate ENLPFQS	area with substrate ENLQFQS	area with substrate ENLRFQS	area with substrate ENLSFQS	area with substrate ENLTFQS	area with substrate ENLVFQS	area with substrate ENLCFQS	area with substrate ENLWFQS
MGESLFKGPRDYNPISSSICSLTNESDGHTTSLYGIGFGPFIITNKHLFRRNNGTLVVQSLHGVFKVKDTTTLQQHLVDGRDMIIIRMPKDFPPFPQKLKFREPQREERICLVTTNFQTKSMSSMVSDTSCTFPSGDGIFWKHWIQTKDGQCGSPLVSTRDGFIVGIHSASNFTNTNNYFTSVPKNFMELLTNQEAQQWVSGWRLNADSVLWGGHKVFMVKPEEPFQPVKEATQL [H21S]	0.0651	0.0604	0.06	0.0811	0.058	0.0852	0.056	0.0841	0.0759	0.0713	0.0656	0.0736	0.0698	0.073	0.0566	0.0786	0.0738	–	–
MGESLFKGPRDYNPISSFICHLTNESDGHTTSLYGIGFGPFIITNKHLFRRNNGTLVVQSLHGVFKVKDTTTLQQHLVDGRDMIIIRMPKDFPPFPQKLKFREPQREERICLVTTNFQTKSMSSMVSDTSCTFPSGDGIFWKHWIQTKDGQCGSPLVSTRDGFIVGIHSASNFTNTNNYFTSVPKNFMELLTNQEAQQWVSGWRLNADSVLWGGHKVFMVKPEEPFQPVKEATQL [S18F]	0.0698	0.0663	0.0682	0.0798	0.0709	0.0657	0.0856	0.0736	0.0548	0.0571	0.0645	0.0569	0.0663	0.0779	0.0574	0.0808	0.096	0.0647	0.0503
MGESLFKGPRDYNPISSVICHLTNESDGHTTSLYGIGFGPFIITNKHLFRRNNGTLVVQSLHGVFKVKDTTTLQQHLVDGRDMIIIRMPKDFPPFPQKLKFREPQREERICLVTTNFQTKSMSSMVSDTSCTFPSGDGIFWKHWIQTKDGQCGSPLVSTRDGFIVGIHSASNFTNTNNYFTSVPKNFMELLTNQEAQQWVSGWRLNADSVLWGGHKVFMVKPEEPFQPVKEATQL [S18V]	0.0696	0.0618	0.0758	0.0819	–	0.0789	–	0.0764	0.07	–	0.0657	0.0668	0.0829	0.0876	0.0608	–	0.105	–	–
MGESLFKGPRDYNPISSYICHLTNESDGHTTSLYGIGFGPFIITNKHLFRRNNGTLVVQSLHGVFKVKDTTTLQQHLVDGRDMIIIRMPKDFPPFPQKLKFREPQREERICLVTTNFQTKSMSSMVSDTSCTFPSGDGIFWKHWIQTKDGQCGSPLVSTRDGFIVGIHSASNFTNTNNYFTSVPKNFMELLTNQEAQQWVSGWRLNADSVLWGGHKVFMVKPEEPFQPVKEATQL [S18Y]	0.0368	0.0603	0.0579	0.0756	–	0.0648	–	0.0867	0.0614	–	0.0644	–	–	–	0.062	–	–	–	0.0621
MGESLFKGPRDYNPISSSICHLMNESDGHTTSLYGIGFGPFIITNKHLFRRNNGTLVVQSLHGVFKVKDTTTLQQHLVDGRDMIIIRMPKDFPPFPQKLKFREPQREERICLVTTNFQTKSMSSMVSDTSCTFPSGDGIFWKHWIQTKDGQCGSPLVSTRDGFIVGIHSASNFTNTNNYFTSVPKNFMELLTNQEAQQWVSGWRLNADSVLWGGHKVFMVKPEEPFQPVKEATQL [T23M]	0.0712	0.0642	0.0549	0.0866	0.0663	0.0684	0.0753	0.077	–	–	0.0517	0.0397	–	0.0783	–	–	0.0855	0.0722	0.0711
MGESLFKGPRKYNPISSSICHLTNESDGHTTSLYGIGFGPFIITNKHLFRRNNGTLVVQSLHGVFKVKDTTTLQQHLVDGRDMIIIRMPKDFPPFPQKLKFREPQREERICLVTTNFQTKSMSSMVSDTSCTFPSGDGIFWKHWIQTKDGQCGSPLVSTRDGFIVGIHSASNFTNTNNYFTSVPKNFMELLTNQEAQQWVSGWRLNADSVLWGGHKVFMVKPEEPFQPVKEATQL [D11K]	0.0764	0.0657	–	0.0945	0.073	0.0781	0.0688	0.0752	–	–	0.0516	0.0643	0.0708	0.0738	0.0554	–	0.086	–	0.0814
MGESLFKGPRRYNPISSSICHLTNESDGHTTSLYGIGFGPFIITNKHLFRRNNGTLVVQSLHGVFKVKDTTTLQQHLVDGRDMIIIRMPKDFPPFPQKLKFREPQREERICLVTTNFQTKSMSSMVSDTSCTFPSGDGIFWKHWIQTKDGQCGSPLVSTRDGFIVGIHSASNFTNTNNYFTSVPKNFMELLTNQEAQQWVSGWRLNADSVLWGGHKVFMVKPEEPFQPVKEATQL [D11R]	0.0714	0.0606	0.0629	0.0881	–	0.0786	–	0.0824	–	–	0.0811	–	0.0684	0.0789	0.0838	–	0.0935	–	0.0794
MGESLFKGPRDYNPISSSICHLTNESVGHTTSLYGIGFGPFIITNKHLFRRNNGTLVVQSLHGVFKVKDTTTLQQHLVDGRDMIIIRMPKDFPPFPQKLKFREPQREERICLVTTNFQTKSMSSMVSDTSCTFPSGDGIFWKHWIQTKDGQCGSPLVSTRDGFIVGIHSASNFTNTNNYFTSVPKNFMELLTNQEAQQWVSGWRLNADSVLWGGHKVFMVKPEEPFQPVKEATQL [D27V]	0.0574	0.075	0.0547	0.071	–	–	0.0682	0.071	0.0554	0.0621	0.0587	0.0542	0.0694	–	0.0571	–	–	0.0708	0.072
MGESLFKGPRDYNPISSSICHLTKESDGHTTSLYGIGFGPFIITNKHLFRRNNGTLVVQSLHGVFKVKDTTTLQQHLVDGRDMIIIRMPKDFPPFPQKLKFREPQREERICLVTTNFQTKSMSSMVSDTSCTFPSGDGIFWKHWIQTKDGQCGSPLVSTRDGFIVGIHSASNFTNTNNYFTSVPKNFMELLTNQEAQQWVSGWRLNADSVLWGGHKVFMVKPEEPFQPVKEATQL [N24K]	0.0463	0.0609	0.0638	0.0656	0.0622	0.066	0.0408	0.0726	0.0573	0.0602	0.0584	0.0557	0.0516	0.0595	–	0.0699	0.0755	0.0601	0.0651
